ChEMBL document CHEMBL4888484, “Replenishing the malaria drug discovery pipeline: Screening and hit evaluation of the MMV Hit Generation Library 1 (HGL1) against asexual blood stage Plasmodium falciparum ,using a nano luciferase reporter read-out” (2022)
Values joined by “and” are separate entries in the source; they are usually repeats but may differ in a detail not shown here. Identical values can stand only once. Among all 150,000 compounds or so, about 540 (0.36%) showed an effect of 50% or more. This is one part of the list.

Tested on: Plasmodium falciparum
Experiment: Primary screen in NF54 nanoGlo assay, in single point, at 2uM, 72h; a lower Z score goes with more inhibition
Assay type: functional, Erythrocyte
Conditions: timepoint 72 hour

| SMILES | % Inhibition [%] | Z score | % Inhibition (2 µM) |
| --- | --- | --- | --- |
| CCOCCc1nc(CCc2ccccc2)nn1-c1ccccn1 | -15 | 1.81 |  |
| CC(=O)Nc1nc(CN[C@@H](C)c2ncc(C)s2)cs1 | -12 | 1.49 |  |
| N#CC1CCCC1NC(=O)Nc1cnn(-c2cccc(C(F)(F)F)c2)c1 (configuration not stated) | -10 | 1.45 |  |
| O=C(NCc1nc(C2CCC(F)(F)CC2)no1)c1ccc(Br)o1 | -5 | 0.78 |  |
| O=C(COC[C@H]1CCCCO1)NCc1cccnc1 | -4 | 0.55 |  |
| OC1CCC(NC(=NC2CC2)NCc2ccccc2F)CC1 (configuration not stated) | -9 | 1.4 |  |
| COc1ccc(-c2nn(-c3ccccc3)cc2C(=O)N(C)C[C@H]2COc3ccccc3O2)c(OC)c1 | 2 | -0.45 |  |
| O=C(CC1CCCC1)N1CCC[C@H](c2n[nH]c(=O)n2-c2ccccc2)C1 | -4 | 0.61 |  |
| CN(CC(=O)N(C)C)Cc1csc(C(C)(C)C)n1 | -1 | 0.07 |  |
| CN(C)c1cc(O[C@H]2CCN(C(=O)CC3CCCC3)C2)ncn1 | -7 | 0.9 |  |
| COc1nccc(-c2cccc(C(=O)N3[C@@H]4CC[C@H]3CN(C)CC4)c2)c1C#N | 0 | -0.03 |  |
| Cc1c(C(=O)N2CCC[C@H](N)C2)nnn1-c1cccc2ncccc12 | -1 | 0.23 |  |
| O=C(CCNc1ccc(Cc2ccncc2)cc1)c1ccc2c(c1)OCO2 | 9 | -1.21 |  |
| CO[C@H]1CCN(c2ncnc3c(-c4ccccc4)nsc23)C1 | 2 | -0.13 |  |
| OC1(CNC[C@H]2CCC3(CCOCC3)CO2)CCCCC1 | -2 | 0.31 |  |
| CCC(=O)N(Cc1ccc(OC)cc1)Cc1cc2ccc(F)cc2nc1N1CCC(O)CC1 | -7 | 1.01 |  |
| Cc1ccc(-n2c(=O)c3ccccc3n(CC(=O)NCc3cccnc3)c2=O)cc1Cl | 36 | -4.8 |  |
| C1=C(CN2CCC[C@H](CN3CCOCC3)C2)CCCC1 | 5 | -0.75 |  |
| CC(=O)N1CCN(C(=O)c2cc(-c3ccc(C(C)(C)C)cc3)n(C)n2)CC1 | 3 | -0.33 |  |
| O=C(Cn1nc(C2CC2)nc1C1CC1)N1CCOCC1 | 37 | -1.4 |  |
| CC1CC(C)CN(C(=O)C2CC(=O)N(C3CC3)C2)C1 (configuration not stated) | -7 | 0.94 |  |

| SMILES | % Inhibition [%] | Z score | % Inhibition (2 µM) |
| --- | --- | --- | --- |
| NC(=O)[C@@H]1CCC[C@@H]1Nc1cc(-c2ccccc2F)nc2ccnn12 | 3 | -0.33 |  |
| O=C(CCn1nnc2cc(S(=O)(=O)N3CCCC3)ccc21)NCc1cccnc1 | -26 | 2.6 |  |
| COCC[C@H]1COCCN1S(=O)(=O)N1CCc2ccccc2C1 | -12 | 2.22 |  |
| c1coc(C2CCN(C[C@H]3CCC4(CCCC4)O3)CC2)n1 | -8 | 1.09 |  |
| CCOc1cc2cc(c1)C(=O)N(C)CC(=O)N[C@@H]1CN(Cc3cc(O)nc(C)n3)CC[C@@H]1OCc1cccc(c1)O2 | -20 | 3.81 |  |
| Cc1noc(-c2cccnc2-n2ncc(C(=O)NCc3ccco3)c2C)n1 | -17 | 2.64 |  |
| O=C(NCc1cccs1)N1CC[C@H](Oc2cc(C(F)(F)F)ccn2)C1 | -9 | 1.75 |  |
| CC(NC(=O)C1CCC(c2ccccc2)N(C(=O)c2ccc(Cl)cc2)C1)c1ccccc1 (configuration not stated) | -3 | 0.48 |  |
| CCOc1ccc(CN[C@@H](CC)CO)cc1Br |  |  | 1% and -3% |
| O=C(Nc1cccc(F)c1)Nc1cccc(-c2cc3ccccc3[nH]2)c1 | 3 | -0.38 |  |
| CCOCC(=O)N1CC(S(=O)(=O)Cc2ccco2)C1 | 1 | -0.07 |  |
| Cc1ccc(NC[C@H]2CCN(CC(=O)NCc3cccs3)C2)nc1 | -1 | 0.15 |  |
| CC(C)N1CCC(N2CCN(Cc3cccc4ccccc34)C[C@@H]2CCO)CC1 | -1 | 0.09 |  |
| C[C@]1(C#N)CCCN(C(=O)CCC(F)(F)F)C1 | -8 | 1.33 |  |
| CCN(CC)c1ncc(CNC2CC(C(F)(F)F)CC(C(F)(F)F)C2)s1 (configuration not stated) | -15 | 2.14 |  |
| COCc1nc(CO[C@H]2CCCN(S(=O)(=O)c3ccc(C(C)C)cc3)C2)no1 | -8 | 1.14 |  |
| CN(CCCO)C(=O)CO[C@H](c1ccccc1)C(F)(F)F | -7 | 1.23 |  |
| Cc1cccc(C)c1NC(=O)[C@H](C)n1cnc2onc(-c3ccc(Cl)cc3)c2c1=O | -12 | 1.68 |  |
| O=C(Oc1ccc2c(c1)OCO2)c1ccc(S(=O)(=O)N2CCOCC2)cc1 | -87 | 16.34 |  |
| CC1CCN(c2ccc(NC(=O)NC(C)C3CCCO3)cc2)C1 (configuration not stated) | -4 | 0.53 |  |
| Cc1cccc(OCC(=O)NCCn2c(C(F)(F)F)nc3cccnc32)c1 | -9 | 1.18 |  |

| SMILES | % Inhibition [%] | Z score | % Inhibition (2 µM) |
| --- | --- | --- | --- |
| CCC(C#N)C(=O)N[C@@H]1C[C@@H](C)Oc2ccccc21 (some centres not stated) | -15 | 2.12 |  |
| COc1ccc(NC(=O)Cn2cc(C(=O)c3ccncc3)c(=O)c3ccc(F)cc32)cc1Cl | 0 | 0.06 |  |
| N#Cc1c(NC(=O)CN2CC[C@H](C(N)=O)C2)sc2c1CCCC2 | -8 | 1.31 |  |
| Cc1nc[nH]c1CN1C[C@H]2CC[C@@H](C1)N(C(=O)c1ccncc1F)C2 | -4 | 0.51 |  |
| COc1cc(Cl)c(C)cc1NC(=O)c1cnn[nH]1 | -17 | 3.31 |  |
| c1cnc(N2CCN([C@H]3CCOC3)CC2)nc1 | 2 | -0.33 |  |
| O=C(Cn1nnc2ccccc21)NCCn1nc(-n2cncn2)ccc1=O | 6 | -0.94 |  |
| COc1ccc(NC(=O)N(Cc2nccs2)C2CC2)c(OC)n1 | 1 | -0.11 |  |
| CCC(=O)N1CCc2nc(N3CCN(Cc4cccnc4)CC3)sc2C1 | -10 | 1.68 |  |
| O=C1NC2(CCCC2)C(=O)N[C@H]1COCc1ccccc1 | 4 | -0.54 |  |
| COc1ccc(OC)c(NC(=O)C2CCCN2S(=O)(=O)c2cc3c(cc2C)NC(=O)C(C)O3)c1 (configuration not stated) | 4 | -0.73 |  |
| CC1CC(C)CN(C(=O)CCc2ccsc2)C1 (configuration not stated) | -3 | 0.27 |  |
| CCn1c(CC2CCN(C(=O)CCn3cc(C)cn3)CC2)nn(C)c1=O | 6 | -0.84 |  |
| COCCN(CC1(C)CCOCC1)C(=O)c1sccc1C | 8 | -1.39 |  |
| CCN(CC)Cc1cccc(C(=O)Nc2nc(C)n(C)n2)c1 | -6 | 1.21 |  |
| O=C(NC[C@H](c1cccs1)c1c[nH]c2ccccc12)c1ccc(Cl)cc1 | -10 | 0.84 |  |
| CCCS(=O)(=O)N(CCOC)CC(=O)N(Cc1ccc(Cl)cc1)C1CCN(C(=O)c2ccccc2OC)CC1 | 2 | -0.32 |  |
| C[C@H](NC(=O)CC1CCCCC1)C(=O)NCC(C)(C)N(C)C | -5 | 0.78 |  |
| Cc1cc(C(=O)Nc2sc(C)c(C)c2C(=O)NCc2cccnc2)no1 | -6 | 0.82 |  |
| CC[C@H](NC(=O)Nc1cccc(-c2ncc(C)o2)c1)c1nccs1 | -10 | 1.32 |  |
| CCN1CC(=O)N[C@H]2CN(S(=O)(=O)N(C)C)CC[C@@H]2OCc2cccc(c2)Oc2cccc(c2)CC1=O | -4 | 0.8 |  |

| SMILES | % Inhibition [%] | Z score | % Inhibition (2 µM) |
| --- | --- | --- | --- |
| CN(C)C(=O)c1cccc(CN[C@H]2CCc3c(O)cccc32)c1 | -6 | 0.98 |  |
| Cn1cc(C(=O)NC2CCN(Cc3ncc(Cl)n3C)CC2)cn1 | -1 | 0.14 |  |
| O=C(Nc1ccc(Nc2ccccc2)cc1)c1cc(C2CC2)on1 | 6 | -0.7 |  |
| COc1ccc2nc(O)c(CCC(=O)NCCN3CCOCC3)cc2c1 | 1 | -0.1 |  |
| OCC[C@H]1CCc2ccccc2N1Cc1ccon1 | 10 | -1.27 |  |
| CN(CCC1(O)CCCC1)C(=O)c1ncn[nH]1 | -12 | 2.32 |  |
| CCn1nc(C)cc1S(=O)(=O)NC(c1ccccc1)[C@H]1C[C@@H](O)C1 (some centres not stated) | 7 | -1.38 |  |
| Cc1oc2cc(C#N)c(C#N)cc2c1[C@H](C)O | -5 | 0.75 |  |
| CN(C)S(=O)(=O)N(C)Cc1ccc(F)cc1Cl | -9 | 0.85 |  |
| Cc1ccccc1C1C(C)CCCC1OCCN(C)C (configuration not stated) | -13 | 1.55 |  |
| Fc1ccc(CN2C[C@@H]3CC[C@H]2CN(Cc2ccncc2)C3)c(F)c1 | -12 | 1.16 |  |
| CON(C)C(=O)CNC(=O)c1ccccc1C | -14 | 2.16 |  |
| O=C(NCc1ccc(F)c(Cl)c1)c1[nH]nnc1-c1cccc(Cl)c1 | -6 | 1.2 |  |
| COc1ccc(C(=O)Nc2cnc(N3CCNCC3)c(C(=O)N(CC(C)C)CC(C)C)c2)cc1 | -3 | 0.39 |  |
| Cc1cc(NC(=O)N2CCc3c(Cl)cccc32)n(C)n1 | -16 | 2.55 |  |
| CC(C)(C)CNC(=O)c1ccc(Cl)c(N)c1 | -15 | 2.17 |  |
| O=C(Cc1c(F)c(F)c(F)c(F)c1F)NC1CCCCC1C(F)(F)F (configuration not stated) | -8 | 1.27 |  |
| Cc1ccc(N(C)CCn2c(C)csc2=O)c(C)c1 | -14 | 1.44 |  |
| CCCn1cc(CNc2nnc(-c3ccoc3C)o2)cn1 | 8 | -1.29 |  |
| Cc1nc(-c2ccc([C@H](C)N3CCCCC3)cc2)n(C)n1 | -12 | 1.88 |  |
| CN(C(=O)c1ccc(NC(=O)CC2CCC2)cc1)C1CCOCC1 | -10 | 1.77 |  |
